Reference: PubChem BioAssay AID624417 (National Center for Advancing Translational Sciences (NCATS), 2012)
The campaign covered roughly 410,000 compounds. About 6,400 (1.6%) were called active. Inconclusive means that the source gave no clear call. Such entries were picked first, then a sample of the others. The call rests on the fitted dose curve; in most records, active means well fitted inhibition curve with a large enough effect; inconclusive means small, poorly fitted or top-dose-only effect; inactive means no such curve, though single readings can be large or run the other way. No potency is given beside an inconclusive call; the fits are too rough.

Each molecule was assayed against Glucagon-like peptide 1 receptor (Homo sapiens) (UniProt P43220) (assay: qHTS of GLP-1 Receptor Inverse Agonists (Inhibition Mode)). Settings: HEK293 GLP-1R CRE-luciferase, luminescence, 24 h, GLP-1R form is constitutively active; series mostly up to 38.3 µM.
UniProt P43220, sequence (P43220 whole entry, looked up): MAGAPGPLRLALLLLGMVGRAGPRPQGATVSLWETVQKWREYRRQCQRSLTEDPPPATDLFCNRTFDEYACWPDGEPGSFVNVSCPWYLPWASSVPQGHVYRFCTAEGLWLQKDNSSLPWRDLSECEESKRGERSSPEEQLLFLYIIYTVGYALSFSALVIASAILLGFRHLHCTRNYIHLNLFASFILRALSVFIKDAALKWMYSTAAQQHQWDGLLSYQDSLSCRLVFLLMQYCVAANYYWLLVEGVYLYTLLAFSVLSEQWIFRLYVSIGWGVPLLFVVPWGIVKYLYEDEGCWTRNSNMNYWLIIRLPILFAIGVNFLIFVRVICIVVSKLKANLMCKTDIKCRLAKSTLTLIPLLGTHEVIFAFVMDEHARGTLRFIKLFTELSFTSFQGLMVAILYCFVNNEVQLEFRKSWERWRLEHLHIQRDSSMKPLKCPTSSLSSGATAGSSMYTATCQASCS
In short: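 HEK293 cells stably co-expressing constitutively active GLP-1R and a cAMP-responsive luciferase reporter were seeded in DMEM with 10% Nu serum, given compounds after 12 h, and incubated 24 h at 37 deg C. Luminescence was then read.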
Further: nearly all actives have a fitted effect of over 55% in size.
Potency means the concentration at half of the fitted maximal effect; tags describe the fitted curve by direction and shape.

`CCCCC(=O)N(C)c1c(CC)nc2c(OCC3CCCCC3)cccn12` was tested. Which Potency did it give?
Its Potency is inconclusive [inhibitor, single point].

How did the Potency turn out when `COc1cc(NC(=O)c2oc3c(c2C)-c2nn(Cc4cccc(Cl)c4)cc2CC3)cc(OC)c1` was run?
Its Potency is inconclusive [inhibitor, single point].

Which Potency does the source give for `COc1cccc(/C(C)=N/Nc2ncc(Cl)cc2Cl)c1` here?
The Potency was inconclusive [inhibitor, single point].

How did the Potency turn out when `Cc1ccc(NC(=O)CNC(=O)c2ccc(OC(F)F)cc2)cc1S(=O)(=O)N1CCCCCC1` was run?
Its Potency is inconclusive [inhibitor, single point].

Which Potency does the source give for `O=C(NCCOc1ccc(Cl)cc1)c1ccc2c(c1)OCCO2` here?
Its Potency is inconclusive [inhibitor, single point].

With `COc1cc(NS(=O)(=O)c2ccc(OC)c(C)c2C)c(OC)cc1Cl` as the molecule, how does the Potency read?
The Potency was active: 3.98 µM.

For `O=C(C(=O)N1CCN(Cc2ccc3c(c2)OCO3)CC1)c1c[nH]c2ccccc12`, which Potency is on record?
Its Potency is inconclusive [inhibitor, single point].

`Cc1ccc(NC(=S)NC(=O)c2ccc(-c3ccc(Cl)cc3)o2)c(O)c1` was tested. Which Potency did it give?
Its Potency is inconclusive [inhibitor, partial curve, poor fit].

Which Potency does the source give for `CC1CCC(N2CCN(S(=O)(=O)Cc3ccccc3)CC2)CC1` (stereo not given) here?
Its Potency is “inactive”.

With `Cn1ncc2c(N3CCC(Cc4ccccc4)CC3)ncnc21` as the molecule, how does the Potency read?
Its Potency is inconclusive [inhibitor, single point].

With `COC(=O)C(Cc1ccc(O)cc1)N1Cc2ccccc2C1=O` (stereo not given) as the molecule, how does the Potency read?
Its Potency is “inactive”.

Which Potency does the source give for `COc1cccc(C2CC(c3ccccc3Cl)n3ncnc3N2)c1` (stereo not given) here?
The Potency was inconclusive [inhibitor, single point].

How did the Potency turn out when `O=C(CN1CCCCC1)N1c2ccccc2Oc2ccccc21` was run?
The Potency was inconclusive [inhibitor, single point].

Which Potency does the source give for `CC1CCN(C(=O)CN2C(=O)NC(c3ccccc3)(c3ccccc3)C2=O)CC1` here?
The Potency was inconclusive [inhibitor, partial curve, poor fit].

Which Potency does the source give for `CN(C)Cc1cc(C(C)(C)C)c(O)c(C(C)(C)C)c1` here?
Its Potency is “inactive”.

Which Potency does the source give for `S=C(NNC(=S)NC1CC2CCC1C2)NC1CC2C=CC1C2` (stereo not given) here?
The Potency was inconclusive [inhibitor, single point].

How did the Potency turn out when `Cn1c(=N)n(CC(O)c2cccc3ccccc23)c2ccccc21` (stereo not given) was run?
The Potency was inconclusive [inhibitor, partial curve, poor fit].

How did the Potency turn out when `OCCC1CN(Cc2cnc(-c3ccccc3)s2)CCN1Cc1ccccc1` (stereo not given) was run?
Its Potency is inconclusive [inhibitor, partial curve, poor fit].

For `CN1CCN(c2ccc(S(=O)(=O)N3CCCCC3)cc2NC(=O)COc2cccc(Cl)c2)CC1`, which Potency is on record?
The Potency was inconclusive [inhibitor, single point].

Which Potency does the source give for `CCN1C(=O)/C(=C/c2nc3ccccc3c(=O)n2-c2ccc(C)cc2)c2ccccc21` here?
The Potency was inconclusive [inhibitor, full curve, poor fit].

Which Potency does the source give for `COc1ccc(/C=C2\Oc3cc(OC(=O)N4CCOCC4)ccc3C2=O)cc1` here?
The Potency was “inactive”.

For `CC(C)(C)NC(=O)C(c1cc2ccccc2o1)n1c(-c2ccc(-c3ccccc3)cc2)nc2ccccc21` (stereo not given), which Potency is on record?
Its Potency is inconclusive [inhibitor, partial curve, poor fit].

How did the Potency turn out when `CCC1CCCCN1CCCNC(=O)c1cc2c(=O)oc3ccc(C)cc3c2s1` (stereo not given) was run?
The Potency was inconclusive [inhibitor, single point].

For `COc1ccc(OCC(=O)NCc2ccc3c(c2)CCN3C(=O)c2ccc(F)cc2)cc1`, which Potency is on record?
Its Potency is inconclusive [inhibitor, single point].

How did the Potency turn out when `CC(C)CC1C(=O)N(Cc2cn(Cc3ccco3)nn2)CCS(=O)(=O)N1Cc1ccc(-c2ccc(F)nc2)cc1` (stereo not given) was run?
Its Potency is inconclusive [inhibitor, single point].

For `Cc1c(Cl)cccc1NCC(=O)Nc1ccc(Cl)cc1F`, which Potency is on record?
Its Potency is inconclusive [inhibitor, partial curve, poor fit].

How did the Potency turn out when `C=CC[C@H](CC(=O)NCCO)C(=O)N[C@@H](COC(=O)[C@@H](CC=C)Cc1ccc(F)cc1)Cc1c[nH]c2ccccc12` was run?
Its Potency is inconclusive [inhibitor, single point].

For `Cc1ccccc1-n1c(-c2cccnc2)n[nH]c1=S`, which Potency is on record?
The Potency was “inactive”.

How did the Potency turn out when `COCCC(=O)Nc1ccc2c(c1)CN(C(=O)c1ccc(CSC)o1)CC2` was run?
Its Potency is inconclusive [inhibitor, single point].

With `CC(C)(C)OC(=O)N1CCC(c2c(C(=O)NCCc3ccccc3)cnn2-c2ccc(F)cc2)CC1` as the molecule, how does the Potency read?
The Potency was inconclusive [inhibitor, single point].

How did the Potency turn out when `CC(C)c1ccc(NC(=O)c2ccc(-c3ccnn3C)c3ccoc23)cc1` was run?
The Potency was inconclusive [inhibitor, full curve].

With `O=[N+]([O-])c1ccc(N2CCN(Cc3ccccc3)CC2)c(S(=O)(=O)N2CCOCC2)c1` as the molecule, how does the Potency read?
Its Potency is inconclusive [inhibitor, single point].

Which Potency does the source give for `Cc1c(C(=O)c2ccc(F)cc2F)c2ccccn2c1CCc1ccccn1` here?
Its Potency is inconclusive [inhibitor, partial curve, poor fit].

With `O=C(OCC(=O)N(CCc1ccccc1)Cc1ccccc1)c1ccccc1O` as the molecule, how does the Potency read?
The Potency was active: 10 µM.

`COc1ccc(Cl)cc1NC(=O)C1(c2cccs2)CCOCC1` was tested. Which Potency did it give?
The Potency was inconclusive [inhibitor, single point].

How did the Potency turn out when `CC(NC(=O)c1ccccc1F)C12CC3CC(CC(C3)C1)C2` (stereo not given) was run?
Its Potency is inconclusive [inhibitor, partial curve, poor fit].

How did the Potency turn out when `CSc1ccc(OC2(C)CCN(Cc3ccc(OC(C)C)cc3)C2)cc1` (stereo not given) was run?
Its Potency is inconclusive [inhibitor, single point].

For `COc1cc(NC(=O)c2cc(C(C)C)on2)c(OC)cc1Cl`, which Potency is on record?
Its Potency is inconclusive [inhibitor, single point].

Which Potency does the source give for `CCOC(=O)/C(=N/Nc1ccc(Br)cc1)N1CC(C)OC(C)C1` (stereo not given) here?
Its Potency is active: 2.51 µM.

How did the Potency turn out when `COc1ccccc1N1CCN(c2ncnc3c2cnn3-c2cccc(Cl)c2)CC1` was run?
Its Potency is “inactive”.
